Source: the supplement of paper PMC8728848
The other results are listed elsewhere or left out.

Assays:
Assay in all cases: glycan array binding signal (z-score within array); higher = stronger binding
Settings in all cases: glycan notation: IUPAC condensed, linker removed
[1] = molecular target: Gal(b1-4)GlcNAc(b1-6)[Gal(b1-3)]GalNAc
Summary of the method: (§1)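 Negative Z-scores can be read as non-binding. The Z-score is calculated within each array and then averaged across arrays of one protein sequence at different concentrations or buffers and across linkers. Arrays, 3228 in all, were curated from the Consortium for Functional Glycomics database and kept only where the protein sequence was available.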

[2] = molecular target: Gal(b1-4)GlcNAc(b1-6)[Gal(b1-4)GlcNAc(b1-3)]GalNAc
Summary of the method: as §1

Gal(b1-4)GlcNAc6P = molecular target: Gal(b1-4)GlcNAc6P
Summary of the method: as §1

Gal(b1-6)Gal = molecular target: Gal(b1-6)Gal
Summary of the method: as §1

Gal3S(b1-3)GalNAc = molecular target: Gal3S(b1-3)GalNAc
Summary of the method: as §1

Gal3S(b1-3)GlcNAc = molecular target: Gal3S(b1-3)GlcNAc
Summary of the method: as §1

[3] = molecular target: Gal3S(b1-3)[Fuc(a1-4)]GlcNAc
Summary of the method: as §1

Gal3S(b1-4)Glc = molecular target: Gal3S(b1-4)Glc
Summary of the method: as §1

Gal3S(b1-4)Glc6S = molecular target: Gal3S(b1-4)Glc6S
Summary of the method: as §1

Gal3S(b1-4)GlcNAc = molecular target: Gal3S(b1-4)GlcNAc
Summary of the method: as §1

Gal3S(b1-4)GlcNAc6S = molecular target: Gal3S(b1-4)GlcNAc6S
Summary of the method: as §1

[4] = molecular target: Gal3S(b1-4)[Fuc(a1-3)]Glc6S
Summary of the method: as §1

[5] = molecular target: Gal3S(b1-4)[Fuc(a1-3)]GlcNAc
Summary of the method: as §1

[6] = molecular target: Gal3S(b1-4)[Fuc(a1-3)]GlcNAc6S
Summary of the method: as §1

Gal3S4S(b1-4)GlcNAc = molecular target: Gal3S4S(b1-4)GlcNAc
Summary of the method: as §1

Gal3S6S(b1-4)GlcNAc = molecular target: Gal3S6S(b1-4)GlcNAc
Summary of the method: as §1

Gal3S6S(b1-4)GlcNAc6S = molecular target: Gal3S6S(b1-4)GlcNAc6S
Summary of the method: as §1

Gal4S(b1-4)GlcNAc = molecular target: Gal4S(b1-4)GlcNAc
Summary of the method: as §1

Gal4S6S(b1-4)GlcNAc = molecular target: Gal4S6S(b1-4)GlcNAc
Summary of the method: as §1

Gal6P(b1-4)GlcNAc = molecular target: Gal6P(b1-4)GlcNAc
Summary of the method: as §1

Gal6S(b1-3)GlcNAc = molecular target: Gal6S(b1-3)GlcNAc
Summary of the method: as §1

Gal6S(b1-3)GlcNAc6S = molecular target: Gal6S(b1-3)GlcNAc6S
Summary of the method: as §1

Gal6S(b1-4)Glc = molecular target: Gal6S(b1-4)Glc
Summary of the method: as §1

Gal6S(b1-4)Glc6S = molecular target: Gal6S(b1-4)Glc6S
Summary of the method: as §1

Gal6S(b1-4)GlcNAc = molecular target: Gal6S(b1-4)GlcNAc
Summary of the method: as §1

Gal6S(b1-4)GlcNAc6S = molecular target: Gal6S(b1-4)GlcNAc6S
Summary of the method: as §1

GalNAc(a1-3)Gal = molecular target: GalNAc(a1-3)Gal
Summary of the method: as §1

GalNAc(a1-3)GalNAc = molecular target: GalNAc(a1-3)GalNAc
Summary of the method: as §1

[7] = molecular target: GalNAc(a1-3)GalNAc(a1-3)Gal(a1-4)Gal(b1-4)GlcNAc
Summary of the method: as §1

[8] = molecular target: GalNAc(a1-3)GalNAc(b1-3)Gal(a1-4)Gal(b1-4)Glc
Summary of the method: as §1

GalNAc(b1-3)Gal = molecular target: GalNAc(b1-3)Gal
Summary of the method: as §1

[9] = molecular target: GalNAc(b1-3)Gal(a1-4)Gal(b1-4)GlcNAc
Summary of the method: as §1

[10] = molecular target: GalNAc(b1-3)Gal(a1-4)Gal(b1-4)GlcNAc(b1-3)Gal(b1-4)Glc
Summary of the method: as §1

[11] = molecular target: GalNAc(b1-3)Gal(a1-6)Gal(b1-4)Glc
Summary of the method: as §1

GalNAc(b1-3)GalNAc = molecular target: GalNAc(b1-3)GalNAc
Summary of the method: as §1

GalNAc(b1-3)GlcNAc = molecular target: GalNAc(b1-3)GlcNAc
Summary of the method: as §1

GalNAc(b1-4)Gal(b1-4)Glc = molecular target: GalNAc(b1-4)Gal(b1-4)Glc
Summary of the method: as §1

GalNAc(b1-4)GlcNAc = molecular target: GalNAc(b1-4)GlcNAc
Summary of the method: as §1

[12] = molecular target: GalNAc(b1-4)GlcNAc(b1-2)Man
Summary of the method: as §1

[13] = molecular target: GalNAc(b1-4)GlcNAc(b1-2)Man(a1-3)[GalNAc(b1-4)GlcNAc(b1-2)Man(a1-6)]Man(b1-4)GlcNAc(b1-4)GlcNAc
Summary of the method: as §1

[14] = molecular target: GalNAc(b1-4)GlcNAc(b1-3)GalNAc(b1-4)GlcNAc
Summary of the method: as §1

GalNAc(b1-4)GlcNAc6S = molecular target: GalNAc(b1-4)GlcNAc6S
Summary of the method: as §1

GalNAc(b1-6)GalNAc = molecular target: GalNAc(b1-6)GalNAc
Summary of the method: as §1

GalNAc3S(b1-4)GlcNAc = molecular target: GalNAc3S(b1-4)GlcNAc
Summary of the method: as §1

GalNAc3S(b1-4)GlcNAc3S = molecular target: GalNAc3S(b1-4)GlcNAc3S
Summary of the method: as §1

B1: ECA (Erythrina cristagalli), P83410 (protein)
chain: VETISFSFSEFEPGNDNLTLQGAALITQSGVLQLTKINQNGMPAWDSTGRTLYTKPVHMWDSTTGTVASFETRFSFSIEQPYTRPLPADGLVFFMGPTKSKPAQGYGYLGVFNNSKQDNSYQTLAVEFDTFSNPWDPPQVPHIGIDVNSIRSIKTQPFQLDNGQVANVVIKYDAPSKILHVVLVYPSSGAIYTIAEIVDVKQVLPDWVDVGLSGATGAQRDAAETHDVYSWSFQASLPE
- glycan array binding signal (z-score) [1]: 0.795
- glycan array binding signal (z-score) [2]: -0.363
- glycan array binding signal (z-score) (Gal(b1-4)GlcNAc6P): -0.214
- glycan array binding signal (z-score) (Gal(b1-6)Gal): 0.357
- glycan array binding signal (z-score) (Gal3S(b1-3)GalNAc): -0.141
- glycan array binding signal (z-score) (Gal3S(b1-3)GlcNAc): -0.186
- glycan array binding signal (z-score) [3]: -0.254
- glycan array binding signal (z-score) (Gal3S(b1-4)Glc): -0.158
- glycan array binding signal (z-score) (Gal3S(b1-4)Glc6S): 0.29
- glycan array binding signal (z-score) (Gal3S(b1-4)GlcNAc): -0.216
- glycan array binding signal (z-score) (Gal3S(b1-4)GlcNAc6S): -0.26
- glycan array binding signal (z-score) [4]: 0.936
- glycan array binding signal (z-score) [5]: -0.508
- glycan array binding signal (z-score) [6]: 0.644
- glycan array binding signal (z-score) (Gal3S4S(b1-4)GlcNAc): -0.265
- glycan array binding signal (z-score) (Gal3S6S(b1-4)GlcNAc): -0.133
- glycan array binding signal (z-score) (Gal3S6S(b1-4)GlcNAc6S): -0.076
- glycan array binding signal (z-score) (Gal4S(b1-4)GlcNAc): -0.079
- glycan array binding signal (z-score) (Gal4S6S(b1-4)GlcNAc): -0.3
- glycan array binding signal (z-score) (Gal6P(b1-4)GlcNAc): -1.57
- glycan array binding signal (z-score) (Gal6S(b1-3)GlcNAc): -0.456
- glycan array binding signal (z-score) (Gal6S(b1-3)GlcNAc6S): -0.604
- glycan array binding signal (z-score) (Gal6S(b1-4)Glc): -0.291
- glycan array binding signal (z-score) (Gal6S(b1-4)Glc6S): -0.209
- glycan array binding signal (z-score) (Gal6S(b1-4)GlcNAc): -0.323
- glycan array binding signal (z-score) (Gal6S(b1-4)GlcNAc6S): -0.474
- glycan array binding signal (z-score) (GalNAc(a1-3)Gal): -0.255
- glycan array binding signal (z-score) (GalNAc(a1-3)GalNAc): -0.186
- glycan array binding signal (z-score) [7]: -0.554
- glycan array binding signal (z-score) [8]: -0.535
- glycan array binding signal (z-score) (GalNAc(b1-3)Gal): -0.272
- glycan array binding signal (z-score) [9]: -0.08
- glycan array binding signal (z-score) [10]: -0.322
- glycan array binding signal (z-score) [11]: -0.175
- glycan array binding signal (z-score) (GalNAc(b1-3)GalNAc): -0.235
- glycan array binding signal (z-score) (GalNAc(b1-3)GlcNAc): -0.668
- glycan array binding signal (z-score) (GalNAc(b1-4)Gal(b1-4)Glc): -0.179
- glycan array binding signal (z-score) (GalNAc(b1-4)GlcNAc): 1.84
- glycan array binding signal (z-score) [12]: -0.413
- glycan array binding signal (z-score) [13]: 1.35
- glycan array binding signal (z-score) [14]: -0.593
- glycan array binding signal (z-score) (GalNAc(b1-4)GlcNAc6S): 0.558
- glycan array binding signal (z-score) (GalNAc(b1-6)GalNAc): -0.391
- glycan array binding signal (z-score) (GalNAc3S(b1-4)GlcNAc): -0.441
- glycan array binding signal (z-score) (GalNAc3S(b1-4)GlcNAc3S): -0.509
